Results reported in article PMC4336329 (PLoS ONE, 2015).
The campaign covered roughly 310,000 compounds. About 2,200 (0.71%) showed an effect of 50% or more. Effects have a minus sign here. This is one part of the list.

What follows are molecules tested against human ether-à-go-go-related gene (hERG) potassium channel (human, UniProt Q12809) (assay: primary screen, population patch clamp on CHO cells stably expressing hERG).
human ether-à-go-go-related gene (hERG) potassium channel, sequence (Q12809 whole entry, looked up): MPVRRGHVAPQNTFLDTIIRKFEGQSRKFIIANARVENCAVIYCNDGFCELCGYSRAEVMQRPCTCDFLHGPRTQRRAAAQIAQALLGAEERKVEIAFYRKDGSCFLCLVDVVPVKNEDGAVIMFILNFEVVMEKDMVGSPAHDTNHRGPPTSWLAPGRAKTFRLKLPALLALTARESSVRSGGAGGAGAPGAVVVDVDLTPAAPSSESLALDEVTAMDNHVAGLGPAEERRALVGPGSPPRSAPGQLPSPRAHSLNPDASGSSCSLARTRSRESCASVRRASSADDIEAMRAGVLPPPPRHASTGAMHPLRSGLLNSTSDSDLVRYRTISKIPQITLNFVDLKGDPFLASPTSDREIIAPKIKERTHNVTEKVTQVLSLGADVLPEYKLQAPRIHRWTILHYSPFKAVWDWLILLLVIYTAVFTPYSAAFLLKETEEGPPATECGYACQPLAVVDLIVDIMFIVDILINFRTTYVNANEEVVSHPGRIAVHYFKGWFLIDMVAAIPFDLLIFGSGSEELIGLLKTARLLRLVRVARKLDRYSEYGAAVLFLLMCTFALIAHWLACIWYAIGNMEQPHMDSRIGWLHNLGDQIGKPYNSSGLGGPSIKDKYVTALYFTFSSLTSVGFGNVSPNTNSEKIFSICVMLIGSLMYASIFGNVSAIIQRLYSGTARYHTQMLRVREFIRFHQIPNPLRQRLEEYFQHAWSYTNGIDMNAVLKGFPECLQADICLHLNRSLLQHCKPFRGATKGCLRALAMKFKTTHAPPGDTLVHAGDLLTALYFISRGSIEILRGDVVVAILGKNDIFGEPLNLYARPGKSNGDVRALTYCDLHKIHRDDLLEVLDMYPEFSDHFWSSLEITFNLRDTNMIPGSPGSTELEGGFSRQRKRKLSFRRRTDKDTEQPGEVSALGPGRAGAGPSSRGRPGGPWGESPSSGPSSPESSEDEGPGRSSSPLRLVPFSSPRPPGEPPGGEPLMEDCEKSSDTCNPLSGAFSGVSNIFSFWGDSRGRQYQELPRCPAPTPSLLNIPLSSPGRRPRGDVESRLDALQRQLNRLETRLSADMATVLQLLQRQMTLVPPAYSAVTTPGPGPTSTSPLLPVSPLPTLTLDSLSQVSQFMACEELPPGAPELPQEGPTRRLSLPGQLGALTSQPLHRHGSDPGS

Row | Compound | hERG current change (%, negative = inhibition) at 1uM
1 | CC(C)n1c(C(F)(F)F)nc2cc(C(=O)N3CCC(O)CC3)ccc21 | 17.1%
2 | CN(C)S(=O)(=O)n1cc(/C=C(\NC(=O)c2ccccc2Cl)C(=O)NCCCn2ccnc2)c2ccccc21 | 9.81%
3 | COc1cc(/C=N/NS(=O)(=O)c2ccc(C)cc2)ccc1OCc1cccc(C(=O)O)c1 | 11.4%
4 | CC(OC(=O)c1ccc2ccccc2c1)C(=O)N(C)Cc1ccccc1 (stereo not drawn) | 0.498%
5 | O=C1CC(c2cc(-c3ccccc3)no2)C1 | 2.75%
6 | O=C(NC1CCCCC1)C(c1ccc(F)cc1)N(C(=O)c1cccs1)c1ccc2c(c1)OCO2 (stereo not drawn) | 12.5%
7 | Cc1cc2oc(=O)sc2cc1NS(=O)(=O)c1cccc2cccnc12 | 14.4%
8 | CCc1cc(CNC(=O)CC2C(=O)NCCN2CC2CCCCC2)on1 (stereo not drawn) | 6.71%
9 | CC(=O)Nc1ccc(NC(=O)CSc2nnc(C)c(=O)[nH]2)cc1 | 9.02%
10 | COc1ccc(NC(=O)CN(C)S(=O)(=O)c2ccc3c(c2)n(C)c(=O)c(=O)n3C)cc1 | 4.25%
11 | CC(=O)c1cccc(NC(=O)C(C)OC(=O)CCn2c(C)csc2=O)c1 (stereo not drawn) | 17.4%
12 | O=C(NCC(c1ccco1)N1CCCC1)c1cc2ccccc2s1 (stereo not drawn) | 9.59%
13 | C/C(N)=C(/C#N)C(=O)CSc1nnc(-c2ccccc2Br)o1 | 12.3%
14 | COc1cc(C2c3c(oc4ccccc4c3=O)C(=O)N2Cc2ccco2)ccc1O (stereo not drawn) | -6.01%
15 | COCCN(Cc1ccccc1)C(=O)Cc1ccc(OC)c(S(=O)(=O)N2CCOCC2)c1 | -7.01%
16 | CCC(C)(C)n1nnnc1C(c1ccc(OC)c(OC)c1)N1CCN(c2ccccc2)CC1 (stereo not drawn) | 12.7%
17 | CN(CC(=O)Nc1cccc(F)c1)C(=O)CSc1ccccc1F | 10.5%
18 | OCCC1CN(Cc2cccc3c2OCO3)CCN1Cc1ccccc1 (stereo not drawn) | 7.11%
19 | C=CCn1cnc2scc(-c3ccc(CC)cc3)c2c1=O | 7.3%
20 | Cc1ccc(CN2CCNC(=O)C2CC(=O)N(C)C2CCOCC2)cc1 (stereo not drawn) | 1.47%
21 | O=C(NC(Cc1c[nH]c2ccccc12)C(=O)O)/C(=C\c1ccccc1)NC(=O)c1ccccc1 (stereo not drawn) | 7.98%
22 | COC(=O)C1(CCSC)NC(c2ccco2)C2C(=O)N(C)C(=O)C21 (stereo not drawn) | 8.09%
23 | CCOc1ccc(C(=O)NCc2cccnc2)cc1 | 6.51%

Row | Compound | hERG current change (%, negative = inhibition) at 1uM
24 | COc1ccc(C2C(C#N)=C(N)Oc3cc(C)[nH]c(=O)c32)cc1OC (stereo not drawn) | 5.65%
25 | COc1cc2c(cc1NC(=O)C(C)Sc1nc3ccccc3n1C)oc1ccccc12 (stereo not drawn) | 10.3%
26 | OCCC1CN(Cc2cccn2-c2cccnc2)CCN1Cc1ccccc1 (stereo not drawn) | -7.57%
27 | CCOc1ccc(S(=O)(=O)N2CCN(C(=O)c3sccc3C)CC2)cc1 | -8.01%
28 | O=C(Nc1ccccc1N1CCCCC1)c1ncoc1-c1cccc(F)c1 | 11.8%
29 | O=S1(=O)CCN(Cc2cccc(C(F)(F)F)c2)CC1 | 16.1%
30 | COCCN1CSC(=S)N(Cc2ccco2)C1 | 2.83%
31 | CCc1ccc(C(=O)NNC(=O)c2c(CC)noc2C)cc1 | 9.37%
32 | O=c1sc2ccccc2n1COc1ccc(Cl)cc1 | 8.2%
33 | O=C(NN=C(Cc1ccccc1)Cc1ccccc1)c1ccc(F)cc1 | -3.99%
34 | CC(C)c1ccc(N(CC(=O)NCc2cccnc2)S(=O)(=O)c2ccccc2)cc1 | 5.61%
35 | Cl.OC12CC3C[C@H](C1)C(N1CCOCC1)[C@@H](C3)C2 (stereo partly drawn) | 14.2%
36 | O=C(CN1N=C(c2ccc(Cl)cc2)CCC1=O)NCc1cccnc1 | -1.03%
37 | CCOC(=O)C1CCCN(C(=O)c2cncc(Br)c2)C1 (stereo not drawn) | 8.44%
38 | CCc1ccc(CN2CCC(n3nccc3NC(=O)C3CCCC3)CC2)cc1 | -68.2%
39 | CCOCCn1c(=O)c2c(nc3n2CCN3c2ccc(C)cc2)n(C)c1=O | 12.2%
40 | COc1ccc(-n2cc(C(=O)c3ccccc3O)cn2)cc1 | 13.2%
41 | CC1CN(CC(=O)NCc2ccccc2)CC(C)O1 (stereo not drawn) | 19.2%
42 | O=Cc1ccccc1-c1cn(CCCOCc2ccccc2)nn1 | 12.1%
43 | COc1ccc(C(=O)NNC(=O)C2CCCO2)cc1 (stereo not drawn) | 19.7%
44 | CC1(C)CC(=O)C=C(NCCN2CCN(C(=O)Cc3ccc(Cl)cc3)CC2)C1 | 12.1%
45 | COc1ccc(NC(=O)CNC(=O)Cc2ccccc2)cc1 | 17.5%
46 | O=C(Nc1ccccc1Br)c1c(F)cccc1Cl | 9.18%

Row | Compound | hERG current change (%, negative = inhibition) at 1uM
47 | O=C(c1ccco1)N1CCN(C(=O)C2CCCO2)CC1 (stereo not drawn) | 13.4%
48 | COC(=O)c1sc(N)c(C(=O)OC)c1Cn1ncc(Cl)c(Cl)c1=O | 2.21%
49 | Nn1c(Cc2cccc3ccccc23)nnc1SCCOc1ccc(Br)cc1 | 7.42%
50 | Cc1cc(C(=O)O)ccc1-c1ccc(/C=C2\NC(=O)N(Cc3ccccc3Cl)C2=O)o1 | 14.7%
51 | COc1ccc(NS(=O)(=O)c2ccc(N3CCOCC3)c(NC(=O)c3ccccc3Br)c2)cc1 | -1.4%
52 | CCOC(=O)N1CCN(C(=O)/C(=C\c2ccc(SC)cc2)NC(=O)c2ccccc2)CC1 | -26.3%
53 | Cc1cccc(NC(=O)CSc2nnc(CNC(=O)c3ccco3)o2)c1 | 17.5%
54 | Cc1cccc2cc(CN(CC3CCCO3)C(=S)Nc3ccccc3)c(=O)[nH]c12 (stereo not drawn) | 12.6%
55 | Cc1cccc(N2CCN(c3ccc(NC(=O)/C=C\C(=O)O)cc3)CC2)c1 | 15.6%
56 | Cc1cc(C(=O)COC(=O)/C=C/c2ccc(F)cc2)c(C)n1C | 8.75%
57 | CN(C)c1ncc(S(=O)(=O)c2ccc(Cl)cc2)c(-c2ccccc2)n1 | 5.25%
58 | Cc1cccc(C(=O)NC2CCN(CC(=O)Nc3ccccc3Cl)CC2)c1 | -4.14%
59 | Clc1ccc(CSc2nnc(/C=C/c3ccccc3)o2)c(Cl)c1 | 8.39%
60 | COc1ccc(CN(C)CC(O)COC(c2ccc(OC)cc2)c2ccc(OC)cc2)cc1 (stereo not drawn) | -80.8%
61 | CN(Cc1ccccc1)S(=O)(=O)c1cc2c3c(c1)CCN3C(=O)CC2 | 6.98%
62 | COc1ccc(-c2noc(C3CCCN(C(=O)c4cccc(F)c4)C3)n2)cc1 (stereo not drawn) | 9.08%
63 | COc1ccc(NC(=O)CCS(=O)(=O)c2cc3c(cc2Cl)NC(=O)CO3)cc1OC | 19.1%
64 | CCOC(=O)CSc1nc2nc(C)cc(C)n2n1 | 7.26%
65 | COC(=O)CSc1nc(NC#N)nc(NC(C)C)n1 | 19.3%
66 | O=C(Nc1ccccc1OC(F)F)C1CCCN1C(=O)c1cccs1 (stereo not drawn) | 13.9%
67 | CCOC(=O)C1=C(Nc2ccc(Br)cc2)CC(C)(O)C(C(=O)OCC)C1c1ccccc1 (stereo not drawn) | 12.3%
68 | Cn1cnc([N+](=O)[O-])c1Sc1n[nH]c(N)n1 | 10.5%
69 | CN(Cc1nccs1)C(=O)c1ccc(OC2CCN(Cc3ccccn3)CC2)cc1 | 1.97%

Row | Compound | hERG current change (%, negative = inhibition) at 1uM
70 | CCOC(=O)Cc1nn(Cc2nc(-c3ccc(C)cc3)cs2)c(=O)c2ccccc12 | 10%
71 | Cc1sc2ncn(CCC(=O)O)c(=O)c2c1C | 11.1%
72 | CCCCC(C(=O)NC(=O)NCc1ccccc1)N1C(=O)c2ccccc2C1=O (stereo not drawn) | 16.7%
73 | COc1ccc(-n2c(-c3ccccc3)nc3ccccc3c2=O)cc1 | -1.46%
74 | CC1CCN(S(=O)(=O)c2ccc(S(=O)(=O)N3CCCC3)cc2)CC1 | -3.5%
75 | CC(C)(C)C(=O)N1NC(=Nc2ccccc2)SC1(C)C | 7.38%
76 | Cc1ccc(Cc2cnc(NC(=O)C3=NCCN3)s2)cc1 | 6.73%
77 | Cc1cc(C)n2ncc(/C(N)=N/OC(=O)Nc3ccc(Cl)cc3)c2n1 | 13.4%
78 | Cn1c(=O)c2c(SCC(=O)NC3CCCC3)nc(CC(C)(C)C)nc2n(C)c1=O | 12.4%
79 | Cc1ccc(CNC(=O)CO/N=C/c2ccc(C(C)(C)C)cc2)cc1 | 13.2%
80 | Nc1c2c(nc3ccccc13)CSCC2 | -11.5%
81 | CC1=C(C(=O)Nc2ccccn2)C(c2ccccc2Cl)NC(=S)N1 (stereo not drawn) | 7.21%
82 | Cc1n[nH]c(C)c1S(=O)(=O)N1CCN(C2CCCCC2)CC1 | 8.7%
83 | CCCCS(=O)(=O)N1CCCC(C(=O)NCC2CCCO2)C1 (stereo not drawn) | 6.22%
84 | Cc1ccc(NC(=O)c2sc3nc[nH]c(=O)c3c2C)c(C)c1 | 7.84%
85 | C=C(C)CNC(=S)Nc1cccc(S(=O)(=O)NC2=NCCC2)c1 | 7.05%
86 | O=C(O)CSC1CC(=O)N(c2cccc(Cl)c2)C1=O (stereo not drawn) | 4.59%
87 | O=C(CSC(=S)N1CCCC1)Nc1cc2c(cc1Br)OCCO2 | 13.3%
88 | O=C(COc1ccccc1-c1ccccc1)NN=C1CCCC1 | 9.96%
89 | O=C(CSCc1c(Cl)cccc1Cl)Nc1nccs1 | -4.34%
90 | OCCN1CCN(c2ncnc3c2sc2nc(N4CCOCC4)c4c(c23)CCC4)CC1 | 6.82%
